# Measured values published in PMC4336329 (PLoS ONE, 2015).
# Among all 310,000 compounds or so, about 2,200 (0.71%) showed an effect of 50% or more. The effect is printed as a negative number. The list shows a part of the results.
# Biological target: human ether-à-go-go-related gene (hERG) potassium channel (human, UniProt Q12809)
# Test: primary screen, population patch clamp on CHO cells stably expressing hERG
# Sequence of human ether-à-go-go-related gene (hERG) potassium channel (Q12809 whole entry, looked up): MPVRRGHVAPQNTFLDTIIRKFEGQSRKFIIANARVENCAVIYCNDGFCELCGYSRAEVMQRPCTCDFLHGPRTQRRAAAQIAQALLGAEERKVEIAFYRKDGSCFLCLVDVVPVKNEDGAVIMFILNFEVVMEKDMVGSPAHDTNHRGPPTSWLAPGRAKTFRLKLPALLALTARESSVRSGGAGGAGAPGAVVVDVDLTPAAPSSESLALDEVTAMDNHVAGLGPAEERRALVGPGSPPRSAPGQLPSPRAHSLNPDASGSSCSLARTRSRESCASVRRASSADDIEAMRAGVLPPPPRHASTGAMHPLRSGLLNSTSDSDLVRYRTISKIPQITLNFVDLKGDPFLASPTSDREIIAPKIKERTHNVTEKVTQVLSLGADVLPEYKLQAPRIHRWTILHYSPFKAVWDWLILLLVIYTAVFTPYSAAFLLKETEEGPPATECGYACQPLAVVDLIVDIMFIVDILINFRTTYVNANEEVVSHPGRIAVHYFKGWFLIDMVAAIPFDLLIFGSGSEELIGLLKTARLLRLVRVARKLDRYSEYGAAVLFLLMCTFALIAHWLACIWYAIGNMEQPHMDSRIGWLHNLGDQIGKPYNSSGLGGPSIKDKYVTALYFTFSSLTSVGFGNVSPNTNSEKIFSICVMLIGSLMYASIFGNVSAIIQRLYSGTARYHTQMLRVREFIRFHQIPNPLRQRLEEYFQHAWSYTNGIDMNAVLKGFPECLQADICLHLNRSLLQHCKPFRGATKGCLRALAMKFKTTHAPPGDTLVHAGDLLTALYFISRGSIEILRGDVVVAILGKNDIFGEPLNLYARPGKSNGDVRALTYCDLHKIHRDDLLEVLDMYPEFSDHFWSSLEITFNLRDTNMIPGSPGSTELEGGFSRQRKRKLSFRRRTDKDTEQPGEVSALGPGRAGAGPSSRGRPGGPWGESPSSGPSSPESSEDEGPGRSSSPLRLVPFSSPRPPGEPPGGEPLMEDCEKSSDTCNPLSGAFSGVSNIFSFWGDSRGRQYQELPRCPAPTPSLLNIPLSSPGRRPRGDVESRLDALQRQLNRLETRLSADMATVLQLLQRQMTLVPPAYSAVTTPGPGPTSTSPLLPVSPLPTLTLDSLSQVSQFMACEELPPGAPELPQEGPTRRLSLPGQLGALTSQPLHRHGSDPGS
row,Structure (SMILES),"hERG current change (%, negative = inhibition) at 1uM"
1,Cc1cc(C)nc(Sc2ncnc3sc4c(c23)CCC4)n1,6.54%
2,O=C(COC(=O)c1ccccc1Nc1ccccc1)NCc1ccccc1,8.18%
3,Cc1nn(C)cc1C1C(C#N)=C(N)N(c2cccnc2)C2=C1C(=O)CCC2 (stereo not shown),8.34%
4,O=C(CSc1nc2ccccc2o1)c1cc2ccccc2oc1=O,1.63%
5,CN(CCCNC(=O)c1ccc(/C=N/O)nc1)CCCN(C)Cc1ccccc1,8.9%
6,CCN(CC)CCNC(=O)c1cn(CC)c2cc(N3CCN(C)CC3)c(F)cc2c1=O.Cl,-0.98%
7,O=C(Nc1cccnc1)OCc1ccccc1,13.8%
8,COc1cc(SC)ccc1C(=O)Nc1ncc(Cl)cc1Cl,8.17%
9,O=C(NCC1CCCN1S(=O)(=O)c1cccs1)c1ccccc1 (stereo not shown),19.1%
10,CC1CCCN(C(=O)c2ccc(Cl)c(S(=O)(=O)N3CCCCCC3)c2)C1 (stereo not shown),-3.22%
11,O=S(=O)(Nc1ccccc1F)c1ccc2nsnc2c1,0.886%
12,CC1Cc2ccccc2N1C(=O)c1ccc(N2CCCCC2)c([N+](=O)[O-])c1 (stereo not shown),8.82%
13,Cc1ccccc1C1NC(c2ccccc2C)C(C)C(=O)C1C (stereo not shown),15%
14,O=C1C2CCCN2C(c2ccc(Cl)cc2)N1c1nccs1 (stereo not shown),8.54%
15,O=c1[nH]c(=O)n(Cc2ccco2)c2c1C(C(F)(F)F)(C(F)(F)F)N=C(c1ccc(F)cc1)N2,5.4%
16,Cc1ccc(C(=O)NC(=S)NCc2cccnc2)cc1C,6.01%
17,Cc1ccc(NC(=O)c2sc3ncnc(N4CCN(c5ccccn5)CC4)c3c2C)c(C)c1,-4.13%
18,CCOCCCNS(=O)(=O)c1ccc(NC(=O)c2ccc([N+](=O)[O-])cc2Cl)cc1,-8.51%
19,COc1cc(C(c2c(O)c3ccccc3oc2=O)c2c(C)n(C)n(-c3ccccc3)c2=O)ccc1O (stereo not shown),4.41%
20,Cc1ccc(S(=O)(=O)NCCC(=O)NCCN2CCCCCC2)cc1,4.87%
21,CCCc1c(C(=O)OCC)sc(N)c1C#N,14.7%
22,Cc1ccc(N(Cc2ccc([N+](=O)[O-])cc2)C(=O)c2ccco2)cc1C,1.7%

row,Structure (SMILES),"hERG current change (%, negative = inhibition) at 1uM"
1,COc1ccccc1N1CCN(C(c2ccc(C)cc2)c2nnnn2C(C)C)CC1 (stereo not shown),2.48%
2,COc1ccc(CNC(=O)C2CCN(S(=O)(=O)c3c(C)n[nH]c3C)CC2)cc1,11.4%
3,CCCc1cc(-c2n[nH]c(=S)n2Cc2ccccc2)cs1,-16.5%
4,CC1(C)O[C@@H]2[C@@H](CO[C@@]3(COS(N)(=O)=O)OC(C)(C)O[C@@H]23)O1,12%
5,O=c1cc(O)n(-c2ccccc2)c(=S)[nH]1,21.3%
6,CCCC(=O)NC(=S)c1c(C)n(C)n(-c2ccccc2)c1=O,21.8%
7,COc1ccc(NC(=O)c2cnn3c(C(F)(F)F)cc(-c4ccco4)nc23)cc1OC,13%
8,CC(C)CCn1c(N2CCCC2)nc2c1c(=O)[nH]c(=O)n2C,6.53%
9,Nc1c(C(=O)c2cccs2)oc2ccccc12,6.25%
10,CC(Oc1cc2oc(=O)c3c(c2cc1Cl)CCC3)C(=O)NCC1CCC(C(=O)O)CC1 (stereo not shown),8.74%
11,O=C(CCc1ccc(F)c(F)c1)NC1CCCN(Cc2ccc(Cl)cc2)C1 (stereo not shown),-28.6%
12,CCOC(=O)C1=C(CSc2nnnn2C)N(C)C(=O)NC1c1ccccc1 (stereo not shown),7.93%
13,CCOC(=O)c1c(CC(C)C)csc1NC(=O)c1ccccc1C(=O)O,1.48%
14,Nc1cc(N)nc(SCC(=O)N2CCCCC2)n1,3.13%
15,CC(=O)N(c1ccc2oc(=O)sc2c1)S(=O)(=O)c1ccc(C)cc1,11.7%
16,CC(=O)Nc1c(C(=O)O)oc2ccc(Cl)cc12,2.84%
17,C=CCNc1nc(SCC=C)nc2ccsc12,3.02%
18,O=C(CS(=O)(=O)c1ccc(F)cc1)N1CCOCC1,10.6%
19,COC(=O)C1=C(C)C(c2ccc(OC)cc2)NC(=O)N1 (stereo not shown),7.34%
20,O=C(N/N=C/c1ccco1)c1ccc(NC(=O)C2CC2)cc1,8.38%
21,O=C(c1cc(F)ccc1F)C1CCCN(C(=O)CCN2CCCCO2)C1 (stereo not shown),15.8%
22,CN(C)c1oc(-c2ccco2)nc1C#N,-2.12%

row,Structure (SMILES),"hERG current change (%, negative = inhibition) at 1uM"
1,CN(C)c1ccc(C(=S)NCc2ccco2)cc1,12.4%
2,Cc1cc(NC(=O)CN2CCC(O)(c3cccc(F)c3)CC2)no1,10%
3,COc1ccc(C/C(C)=N/NS(=O)(=O)c2ccc(Br)cc2)cc1,9.79%
4,O=C(NCC(=O)N(Cc1ccccc1)C(C(=O)NC1CCCC1)c1ccncc1)c1ccco1 (stereo not shown),10.8%
5,CN(C)/C(=N\S(=O)(=O)c1ccccc1)c1ccc(Cl)cc1,13.7%
6,Cc1cn[nH]c1.Cl,0.646%
7,Cc1c(NC(=O)c2c(N)n(-c3ccccc3)c3nc4ccccc4nc23)c(=O)n(-c2ccccc2)n1C,-8.5%
8,CC1CCCCC1NC(=O)CN1C(=O)NC(C)(c2cccc(Br)c2)C1=O (stereo not shown),10.1%
9,COC1CCN(C(=O)C2CCC(=O)N(C3CCCCCC3)C2)CC1 (stereo not shown),20.5%
10,O=C(CSC1=NCCS1)NC(c1ccccc1)c1ccccc1,11.4%
11,CN1C(=S)SC(N2OC3C(=O)N(c4ccccc4)C(=O)C3C2c2ccc(Cl)cc2)C1(C)C (stereo not shown),4.69%
12,COc1cccc(C(=O)NCCS(=O)(=O)NCC2CCCO2)c1 (stereo not shown),11.3%
13,COc1ccc(OC)c(NC(=O)COC(=O)CN(C)S(=O)(=O)c2ccc(C)cc2)c1,2.41%
14,O=C(CCNC(=O)Cn1ccc2ccccc2c1=O)NCCN1CCN(c2cccc(Cl)c2)CC1,8.64%
15,COc1ccc(NC(=O)c2ccc(S(=O)(=O)N3CC(C)CC(C)C3)cc2)cc1S(N)(=O)=O (stereo not shown),21%
16,CN(CC(=O)Nc1cc(S(=O)(=O)N2CCOCC2)ccc1Cl)C1CCS(=O)(=O)C1 (stereo not shown),5.99%
17,Cc1cc(C(=O)NNC(=O)CN2C(=O)NC(C)(c3ccccc3)C2=O)c(C)o1 (stereo not shown),14.3%
18,CN1C(=O)C(O)(c2sc(N)nc2-c2ccccc2)c2ccccc21 (stereo not shown),11.2%
19,Cc1ccc(NCc2nnc(SCC(=O)N3c4ccccc4Sc4ccccc43)o2)c(C)c1,2.96%
20,COc1ccccc1NC(=O)CCNS(=O)(=O)c1ccc2c(c1)CC(C)N2C(=O)C1CC1 (stereo not shown),17.2%
21,Cc1ccc(-c2c(C(=O)NCc3ccc(F)cc3)oc(=O)c3ccccc23)cc1,4.86%
22,Cc1ccc(CNC(=O)CN(C(=O)C2(C)CC(=O)N=C3C=CC=CN32)c2ccccc2)cc1 (stereo not shown),15.9%

row,Structure (SMILES),"hERG current change (%, negative = inhibition) at 1uM"
1,COc1cccc(C2c3[nH]c4ccccc4c3CCN2Cc2cccc(C)n2)c1 (stereo not shown),4.02%
2,O=c1[nH]c2cc(Cl)ccc2n(CCNc2ncc(C(F)(F)F)cc2Cl)c1=O,11.2%
3,CC(C)(CCl)C(=O)Nc1ccc(OC(F)(F)F)cc1,-9.32%
4,O=C(NCCCNC(=O)c1cccnc1)c1ccc(Cl)cc1,13.8%
5,CCn1nc(NS(=O)(=O)c2ccc(NC(C)=O)cc2)c2cc3ccc(C)cc3nc21,2.47%
6,CCc1ccc(C(=O)N/N=C/c2ccncc2)s1,11.7%
7,CC(C)c1ccc[n+](-c2nc([O-])sc2C=O)c1,15.4%
8,CCOc1ccc(-c2nc(CN3CCCC(C(=O)N4CCOCC4)C3)c(C)o2)cc1 (stereo not shown),-5.79%
9,CCOC(=O)c1cc(CC)sc1NC(=O)CN1CCN(C(=O)c2ccco2)CC1,-3.16%
10,Cc1cccc(OC(C)C(=O)Nc2ccccc2C(=O)N2CCCCC2)c1 (stereo not shown),7.13%
11,Oc1oc(-c2ccccc2)nc1C=NCc1ccncc1,11.7%
12,CCN(CC)S(=O)(=O)c1ccc(Cl)c(C(=O)NCC2CCCO2)c1 (stereo not shown),14.2%
13,N#CCC(=O)Nc1ccc(C(=O)OCC(=O)Nc2cccc(C(F)(F)F)c2)cc1,4.82%
14,COCc1c(C#N)c(NCc2cc(OC)c(OC)c(OC)c2)nc(C)c1[N+](=O)[O-],-10.4%
15,COc1ccccc1NS(=O)(=O)c1ccc(C(=O)NCC(c2ccco2)N(C)C)cc1 (stereo not shown),11.2%
16,CCOC(=O)/C=C/C(=O)OCC(=O)Nc1cccc(Br)c1,5.46%
17,CCN(CC)c1ccc(NC(=O)c2ccc(Cl)nc2)cc1,13.3%
18,O=c1c2cccnc2[nH]c(=S)n1CCCN1CCN(c2ccc(F)cc2)CC1,12.9%
19,CN(C(=O)CSc1ncnc2sc(-c3ccccc3)cc12)C1CCS(=O)(=O)C1 (stereo not shown),8.83%
20,CCOC(=O)[C@@H]1[C@H]2COc3cc(OC)ccc3[C@@H]2N2C(=O)N(c3ccc(Br)cc3)C(=O)[C@]12C,8.74%
21,O=C(CN1CCN(c2ccccc2)CC1)Nc1ccncc1,9.98%
22,Cc1nn(C)cc1C(N)=O,-2.02%
